Source: PubChem BioAssay AID1508623 (National Center for Advancing Translational Sciences (NCATS), 2021)
In all, about 48,000 compounds went through this assay and about 450 (0.94%) were called active. Another 19% or so got no clear call; they are omitted. The call rests on the fitted dose curve; in most records, active means well fitted inhibition curve with a large enough effect; inconclusive means small, poorly fitted or top-dose-only effect; inactive means no such curve, though single readings can be large or run the other way. The list shows a part of the results.

Assay: Primary qHTS for Identification of Small Molecule Inhibitors of Huntingtin Promoter Activity; further: nearly all actives have a fitted effect of over 50% in size
Conditions: HEK293 HTT promoter firefly luciferase reporter (activity 0% = vehicle and -100% = no light), 24 h; series mostly up to 57.5 µM; activity change, negative = inhibition: at the top concentration
Method in brief: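 Firefly luciferase readout (Dual-Glo, 10 min RT) after 24 h, 37 °C compound exposure (final up to 57.5 uM) of HEK293 reporter cells cultured 24 h beforehand; PTC124 at 50 uM final as control inhibitor; activity scaled vehicle 0%, zero RLU -100%.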

Compound	activity change, negative = inhibition
CCn1cc(S(=O)(=O)c2ccccc2)c(=O)c2cc(F)c(F)cc21	inactive: -15%
CC(C)CCNC(=O)c1ccc2nc(Cc3ccccc3)oc2c1	inactive: -11.9%
CCOc1ccc(N(CC)C(=O)Cn2cnc3sc(C)c(S(=O)(=O)N4CCN(c5ncccn5)CC4)c3c2=O)cc1	inactive: -0.251%
COc1ccc(-c2cc(C(F)(F)F)nc(SCC(=O)NC(C)c3ccccc3)n2)cc1 (stereo not drawn)	inactive: -18.3%
COC(=O)CN1C(C(=O)c2ccccc2)=C(OC(=O)c2ccccc2)c2ccccc2S1(=O)=O	inactive: -10.9%
Cc1ccc(NC(=O)CCCn2nc(C)c3c(C)n(-c4ccccc4)nc3c2=O)c(Cl)c1	inactive: 5.34%
Cc1ccc(NC(=O)C2CCCN(S(=O)(=O)c3cccs3)C2)c(C)c1 (stereo not drawn)	inactive: -17.7%
COc1ccc(S(=O)(=O)N(CC(=O)Nc2ccc(Br)cc2)Cc2ccccc2)cc1	inactive: -26.7%
CCOC(=O)c1cc(NC(=O)c2ccc(F)cc2)c(=O)n2c1oc1ccc(Cl)cc12	inactive: 0.346%
Cc1cc(O)c(CN2CCN(c3ccccc3)CC2)c2oc(=O)cc(C)c12	inactive: 2.98%
Cc1nc(-c2ccc(S(=O)(=O)NCc3ccccc3Cl)cc2)co1	inactive: -21.5%
CCCn1c2ccccc2c2cnn(CC(=O)N3CCCC(C(=O)OCC)C3)c(=O)c21 (stereo not drawn)	inactive: -20.2%
Cc1ccc(C(=O)Nc2cnc3ccccn3c2=O)cc1	inactive: 62.7%
CCN1CCN(C(=O)Cn2ncc3c4ccccc4n(Cc4c(C)cc(C)cc4C)c3c2=O)CC1	inactive: -13.5%
CCc1ccc(NC(=O)CSc2nnc(CC)c(CC)n2)cc1	inactive: -8.08%
Cc1ccc(Cn2c(CN3CCC(C(=O)O)CC3)cc3ccccc32)cc1	inactive: -20.8%
COc1ccc(C(=O)Nc2nc3c(s2)Cc2c(Br)ccc(OC)c2-3)cc1OC	inactive: -24.4%
Cc1cc(C)cc(N(CC(=O)Nc2c(C)cc(C)cc2C)S(=O)(=O)c2c(C)nn(C)c2C)c1	inactive: -25.7%
CCN(CC)CCCNC(=O)c1sc2nc3n(c(=O)c2c1C)CCCCC3	inactive: -4.83%
CN(CC(=O)Nc1ccc(F)cc1F)S(=O)(=O)c1cccc2nsnc12	inactive: -15.1%
CCOc1cc(-c2nnc(SCC(=O)NC3CCCCC3)nc2-c2ccc(OC)c(OCC)c2)ccc1OC	inactive: -8.07%
CCOc1ccccc1NC(=O)CCS(=O)(=O)c1ccc2c(c1)oc(=O)n2C	inactive: -16.4% [at 11.5 µM]
CC(C)NC(=O)C1CCCN(c2ncnc3onc(-c4ccc(F)cc4)c23)C1 (stereo not drawn)	inactive: -13.8%
COc1ccc2oc(-c3cccc(NC(=O)c4cc([N+](=O)[O-])ccc4N4CCOCC4)c3)nc2c1	inactive: 0.877%

Compound	activity change, negative = inhibition
CCOC(=O)C(C)Sc1nnc2cc(C)c3ccccc3n12 (stereo not drawn)	inactive: 5.9%
COc1cc(C2c3c(-c4c(C)cc(C)cc4O)n[nH]c3C(=O)N2Cc2ccco2)cc(OC)c1OC (stereo not drawn)	inactive: -33%
Cc1ccc(-n2ncc3c(NCCCN(C)C)ncnc32)cc1Cl	inactive: -4.51%
O=C(Cn1ncc2c3ccccc3n(Cc3ccccc3)c2c1=O)NCc1ccccn1	inactive: 14.7%
COc1ccc(Nc2ncc3c(n2)CCN(Cc2sccc2C)C3)c(OC)c1	inactive: -7.38%
O=[N+]([O-])c1ccc(S(=O)(=O)N2CCn3cccc3C2c2ccc(Br)cc2)cc1 (stereo not drawn)	inactive: -1.35%
COc1ccc(C(CNC(=O)c2oc3cc(Br)ccc3c2C)N2CCCCC2)cc1 (stereo not drawn)	inactive: -5.18%
CCOC(=O)CN1C(=O)N(c2ccc(C)c(C)c2)S(=O)(=O)c2ccccc21	inactive: -23.3%
COc1ccc(NC(=O)CC2C(=O)N(c3ccccc3)C(=O)N2CCc2sccc2C)cc1 (stereo not drawn)	inactive: -29.4%
CCOc1ccc(CNC(=O)C2CCCN(c3nn4cc(-c5ccc(OC)cc5)nc4s3)C2)cc1 (stereo not drawn)	inactive: 0.95%
CC(C)CCNc1nc2c(-c3ccccc3)nnn2c2ccccc12	inactive: -10.2%
Cc1ccc(C(=O)CSc2nc3cc(C(=O)NC4CCCC4)ccc3c(=O)n2CC2CCCO2)c(C)c1 (stereo not drawn)	inactive: 0.989%
Oc1ccc(OCc2ccccc2)cc1	inactive
COc1cccc(-c2cc(C(=O)Nc3cnn(Cc4ccc(Cl)cc4Cl)c3)no2)c1	inactive: -28.8%
COc1cccc(NC(=O)c2oc3ccccc3c2NC(=O)c2ccccc2C)c1	inactive: -20.7%
O=C(CC1N=C2c3ccccc3N=C(SCc3cccc(F)c3)N2C1=O)NCc1cccs1 (stereo not drawn)	inactive: -28.3%
COC(=O)c1ccccc1NC(=O)CSc1n[nH]c(CC(C)C)n1	inactive: -22%
Cc1ccc(CNC(=O)CCNS(=O)(=O)c2ccc3c(c2)CCCC(=O)N3)cc1	inactive: -25.6%
CCCCN(CCCC)CCCNC(=O)c1ccc2nc(N3CCCCC3)sc2c1	inactive: -23.1%
COc1ccc(-c2nnn3c2nc(NCCc2ccc(OC)c(OC)c2)c2ccccc23)cc1	inactive: -10.3%
COc1ccc2c(c1)c1c(c(=O)n(-c3cc(Cl)ccc3C)c(=O)n1CC(=O)N1CCCC1)n2C	inactive: -8.63%
COc1ccc(OC)c(Nc2nc3ccccc3nc2-n2nc(C)cc2C)c1	inactive: 2.15%
Cc1ccccc1NC(=O)c1c(NC(=O)c2ccccc2F)sc2c1CCC(C)C2 (stereo not drawn)	inactive: -1.95%
COc1ccccc1NC(=O)c1ncn(-c2ccccc2)n1	inactive: 64.7%
